# Reference: PMC7819943, “Rice protein-binding microarrays: a tool to detect cis-acting elements near promoter regions in rice”
# Some of the results follow.
# Target: T1, OsWOX13 (Oryza sativa, UniProt Q5QMM3 1-267)
# T1 sequence: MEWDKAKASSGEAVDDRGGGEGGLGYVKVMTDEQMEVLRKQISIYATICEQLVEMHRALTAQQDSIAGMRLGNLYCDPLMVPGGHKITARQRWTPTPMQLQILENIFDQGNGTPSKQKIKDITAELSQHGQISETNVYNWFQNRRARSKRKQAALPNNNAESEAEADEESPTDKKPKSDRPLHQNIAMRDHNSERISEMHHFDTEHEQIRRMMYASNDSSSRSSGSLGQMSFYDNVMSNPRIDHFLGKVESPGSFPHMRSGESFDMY
# Assay: protein-binding microarray (RPBM); PBS, 2% BSA, 51.3 ng/ul salmon testes DNA, 50 uM zinc acetate, 200 nM TF, 25 C, 1 h; high values mean tight binding
# Settings: protein: recombinant; tags: N-terminal polyhistidine and DsRed monomer fusion (pET32a); label: CyDye5-dUTP incorporated in the synthesized complementary strand; 3' TTTTT single-stranded linker to array surface; dsDNA, one strand shown
# Procedure, shortened: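 Per-feature fluorescence intensity (arbitrary units), read on an Axon 4000B scanner, is the binding signal. Transcription factors carrying an N-terminal polyhistidine tag and DsRed fusion were expressed in E. coli BL21-CodonPlus and purified on Ni–NTA. A custom Agilent array, made double-stranded by primer extension with Cy5-dUTP and blocked with 2% BSA, was incubated with 200 nM protein in PBS, 2% BSA, salmon testes DNA and 50 µM zinc acetate at 25 °C for 1 h and then washed.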
row,Sequence,binding signal
1,TGTAAACTACACAGATTAATCTTTGCTAGTATACATATAGCGGAGTCACCTAGTGCAG,3150 fluorescence intensity (a.u.)
2,AGGCCCAATTACTGATCGAAATTTCGATGATTTCGATCGACGGAGTCACCTAGTGCAG,18500 fluorescence intensity (a.u.)
3,CCAATTGTTGATGATTTGCAGGATGGACCTGCTAATTAATCGGAGTCACCTAGTGCAG,10300 fluorescence intensity (a.u.)
4,TCTCATTTAATATTCCCATCAGTCGTACGTGCACACCAGTCGGAGTCACCTAGTGCAG,3330 fluorescence intensity (a.u.)
5,GGATAAATTCCCTTTAATTGATCCGATTCCATCGAGAACACGGAGTCACCTAGTGCAG,27000 fluorescence intensity (a.u.)
6,CTAACCTGATAGAAGTACATGATTAATCGATGATTAGCCGCGGAGTCACCTAGTGCAG,27100 fluorescence intensity (a.u.)
7,TCGTTGAAGTAGATTGAATCTATACGTACAGCGCGATTTACGGAGTCACCTAGTGCAG,4570 fluorescence intensity (a.u.)
8,AGGATAATTTCGAATGTGAATGTGTTTATAAGAATAACAACGGAGTCACCTAGTGCAG,4080 fluorescence intensity (a.u.)
9,GCAAAATCAATCTAGGGTTTGCCTCCTACTCTGTACTGCGCGGAGTCACCTAGTGCAG,4870 fluorescence intensity (a.u.)
10,GTAATTAATTTTAACATCATATCATCTCATAGAGAGCACGCGGAGTCACCTAGTGCAG,50100 fluorescence intensity (a.u.)
11,TAGCCAATCTAATAGCTCATTCATATAATAATTACATACTCGGAGTCACCTAGTGCAG,4410 fluorescence intensity (a.u.)
12,TTGTGCAGATTGTGACTAATTTACGAGATGAATCTTTTGACGGAGTCACCTAGTGCAG,11000 fluorescence intensity (a.u.)
13,ATTTGACATATATGTTAAAATCTTCACCTAAGATTTTCGTCGGAGTCACCTAGTGCAG,7360 fluorescence intensity (a.u.)
14,GTCTTAGATTATCAAATCATTTACAAACAAGAACATCCGTCGGAGTCACCTAGTGCAG,28300 fluorescence intensity (a.u.)
15,CACTGAAAGAATAATTAAACGTAATTGCGAGTACATGTGTCGGAGTCACCTAGTGCAG,31000 fluorescence intensity (a.u.)
16,ATAGATAGATAGATAGATAGATGTAGTCATCATCACACATCGGAGTCACCTAGTGCAG,49300 fluorescence intensity (a.u.)
17,TCACCTTGATAAATTTTATAAAATTACATATATTTTGATCCGGAGTCACCTAGTGCAG,8560 fluorescence intensity (a.u.)
18,TAGATTTAATTTTAATCCTAGCTTCACCACACCATGATCCCGGAGTCACCTAGTGCAG,12200 fluorescence intensity (a.u.)
19,GTGCCAATCAGAGTTGGTGGCGACAACGAGATGGAAGCAACGGAGTCACCTAGTGCAG,5330 fluorescence intensity (a.u.)
20,GTAAATTTTAGCCGGGATTAATACGTGTTTGTGCTTGGCGCGGAGTCACCTAGTGCAG,9040 fluorescence intensity (a.u.)
21,TATAGTTAATTTAATTGTTGTGCTAATTGTTTGCGTGGTCCGGAGTCACCTAGTGCAG,41200 fluorescence intensity (a.u.)

row,Sequence,binding signal
1,TCGTGATTTATATAGCGATACATCCCACCGTGTAAATAAGCGGAGTCACCTAGTGCAG,37500 fluorescence intensity (a.u.)
2,AGACTATTTACAAAACTAATTACATAAATGAAAGCTAACTCGGAGTCACCTAGTGCAG,5260 fluorescence intensity (a.u.)
3,TCCTAATTCCCGAAACTAAAATAACACAATGTATCATATGCGGAGTCACCTAGTGCAG,5500 fluorescence intensity (a.u.)
4,ATCCATCATAATTATCATTAAAATTTCTAATCAATACTTACGGAGTCACCTAGTGCAG,9780 fluorescence intensity (a.u.)
5,AACGTATTTTATAATTATTTTATTTATTAGTGCTTAAACACGGAGTCACCTAGTGCAG,3730 fluorescence intensity (a.u.)
6,CCAAAGGATTGAGAATGGATTCACTTACTTGGCTACGAGTCGGAGTCACCTAGTGCAG,3160 fluorescence intensity (a.u.)
7,ATTGATTGGAGCCGAGAATGAGAAAGGATGACACGTTCGTCGGAGTCACCTAGTGCAG,35500 fluorescence intensity (a.u.)
8,GCAGAACACGTACTGTTGATTGATTCAGGCGAAGAGCCAACGGAGTCACCTAGTGCAG,27000 fluorescence intensity (a.u.)
9,TAATGTGATAGACTGATAGTGCTACTCATACTCCCCTGTTCGGAGTCACCTAGTGCAG,27100 fluorescence intensity (a.u.)
10,GTTAAATTTGTAGTTTTGTGATGATTTGATCAAAGTATATCGGAGTCACCTAGTGCAG,22700 fluorescence intensity (a.u.)
11,AATAAATAAACAAATACGATACTTCTTAAGTACAAGCGTGCGGAGTCACCTAGTGCAG,3670 fluorescence intensity (a.u.)
12,ATATATATATATATATATATATATATATATAATCTCTCCTCGGAGTCACCTAGTGCAG,18800 fluorescence intensity (a.u.)
13,CCTTAACAGCCACCTGCACGGCCCACGGTCGTCGTCGCCACGGAGTCACCTAGTGCAG,4390 fluorescence intensity (a.u.)
14,GAATCTTGAAATTGAGCTGATTAATTTTCTTCTTGTTGAGCGGAGTCACCTAGTGCAG,11800 fluorescence intensity (a.u.)
15,CATTTTGATTACTATGGTATAGGTGCCAACCGGTAATACCCGGAGTCACCTAGTGCAG,7900 fluorescence intensity (a.u.)
16,TTAATTGGGTTTTACTTATTATAAACTTGAATAATGGATTCGGAGTCACCTAGTGCAG,21300 fluorescence intensity (a.u.)
17,TGTACATCAATGGATTGGCATTAATTAGCATTTGGTTGGACGGAGTCACCTAGTGCAG,28200 fluorescence intensity (a.u.)
18,CGTGTGATCCCCAATCACGCCCTCCTCAGGCGGACACGGTCGGAGTCACCTAGTGCAG,5140 fluorescence intensity (a.u.)
19,ATCGAACTGTGAATAATAATTGATACCTGTCATATCCATCCGGAGTCACCTAGTGCAG,8760 fluorescence intensity (a.u.)
20,TAAATTTTGATAATGTTAAAATTGTAGCAACAAACTAAACCGGAGTCACCTAGTGCAG,3450 fluorescence intensity (a.u.)
21,CCCCATTAAACGGAAAATTAGGTGCCTGATGAATTTACATCGGAGTCACCTAGTGCAG,10400 fluorescence intensity (a.u.)
